Laboratory results taken from the supplement of paper PMC4967469.
Lines with a small IC50 respond at low doses; a limit (>, <) means that the fit lies beyond the doses tested. The AUC spans the tested range (256-fold, ending at the top dose) of the same fit; it is 1 without any effect and falls as sensitivity rises. A top dose marked as inferred was derived from the fitted curves, not read from the paper. Where an entry number is given, a second screen of the drug exists; the two often differ.

compound: CS(=O)(=O)N1CCN(Cc2cc3nc(-c4cccc5[nH]ncc45)nc(N4CCOCC4)c3s2)CC1 [GDC0941]; assay: Viability of human cancer cell lines after 72 h of drug (GDSC screen); settings: screen: GDSC drug entry 1058
Protocol: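 Human cancer cell lines in 384-well plates, medium with 10% serum, drug for 72 h over a 256-fold dose range (nine 2-fold or five 4-fold steps up to the top dose). Adherent lines were fixed and stained with the nucleic acid dye Syto60, suspension lines read with resazurin; signal relative to control wells, capped at 0 and 100%. One two-parameter sigmoid per drug and line, fitted in a mixed model over all curves with the slope shared within a line.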

| Cell Line | AUC | IC50 |
| --- | --- | --- |
| CHSA8926 (chondrosarcoma, adherent, top dose 4 µM) | 0.668 | 895 nM |
| CMK (acute myeloid leukaemia, suspension, top dose 4 µM) | 0.929 | > 4000 nM |
| CML-T1 (chronic myeloid leukaemia, suspension, top dose 4 µM) | 0.939 | > 4000 nM |
| COLO-205 (large intestine, suspension, top dose 4 µM) | 0.543 | 327 nM |
| COLO-320-HSR (large intestine, suspension, top dose 4 µM) | 0.711 | 896 nM |
| COLO-668 (small cell lung carcinoma, adherent, top dose 4 µM) | 0.982 | > 4000 nM |
| COLO-678 (large intestine, semi-adherent, top dose 4 µM) | 0.954 | > 4000 nM |
| COLO-679 (melanoma, adherent, top dose 4 µM) | 0.972 | > 4000 nM |
| COLO-680N (oesophagus, adherent, top dose 4 µM) | 0.973 | > 4000 nM |
| COLO-684 (endometrium, suspension, top dose 4 µM) | 0.504 | 256 nM |
| COLO-783 (melanoma, adherent, top dose 4 µM) | 0.987 | > 4000 nM |
| COLO-800 (melanoma, adherent, top dose 4 µM) | 0.842 | 2690 nM |
| COLO-824 (breast, adherent, top dose 4 µM) | 0.943 | > 4000 nM |
| COR-L23 (large cell lung carcinoma, adherent, top dose 4 µM) | 0.865 |  |
| COR-L88 (small cell lung carcinoma, adherent, top dose 4 µM) | 0.97 | > 4000 nM |
| COR-L95 (small cell lung carcinoma, adherent, top dose 4 µM) | 0.939 | > 4000 nM |
| COR-L279 (small cell lung carcinoma, suspension, top dose 4 µM) | 0.913 | > 4000 nM |
| COR-L321 (lung, suspension, top dose 4 µM) | 0.988 | > 4000 nM |
| CP50-MEL-B (melanoma, adherent, top dose 4 µM) | 0.874 | 3790 nM |
| CP66-MEL (melanoma, adherent, top dose 4 µM) | 0.868 | > 4000 nM |
| CPC-N (small cell lung carcinoma, suspension, top dose 4 µM) | 0.792 | 2000 nM |
| CRO-AP2 (B-cell lymphoma, suspension, top dose 4 µM) | 0.75 | 1160 nM |
| CS1 (bone, adherent, top dose 4 µM) | 0.825 | 2790 nM |
| CTB-1 (B-cell lymphoma, suspension, top dose 4 µM) | 0.733 | 1500 nM |
| CTV-1 (acute myeloid leukaemia, suspension, top dose 4 µM) | 0.761 | 1170 nM |
| CW-2 (large intestine, adherent, top dose 4 µM) | 0.973 | > 4000 nM |
| Ca9-22 (head and neck, adherent, top dose 4 µM) | 0.923 | > 4000 nM |

| Cell Line | AUC | IC50 |
| --- | --- | --- |
| Ca-Ski (cervix, adherent, top dose 4 µM) | 0.664 | 760 nM |
| CaR-1 (large intestine, adherent, top dose 4 µM) | 0.805 | 3390 nM |
| Caov-4 (ovary, adherent, top dose 4 µM) | 0.972 | > 4000 nM |
| Capan-2 (pancreas, adherent, top dose 4 µM) | 0.949 | > 4000 nM |
| ChaGo-K-1 (non-small cell lung carcinoma, adherent, top dose 4 µM) | 0.96 | > 4000 nM |
| D-247MG (glioma, adherent, top dose 4 µM) | 0.87 | > 4000 nM |
| D-263MG (glioma, adherent, top dose 4 µM) | 0.615 | 555 nM |
| D-283MED (medulloblastoma, adherent, top dose 4 µM) | 0.757 | 1270 nM |
| D-392MG (glioma, adherent, top dose 4 µM) | 0.916 | > 4000 nM |
| D-423MG (glioma, adherent, top dose 4 µM) | 0.711 | 1140 nM |
| D-502MG (glioma, adherent, top dose 4 µM) | 0.726 | 1600 nM |
| D-542MG (glioma, adherent, top dose 4 µM) | 0.863 | > 4000 nM |
| D-566MG (glioma, adherent, top dose 4 µM) | 0.787 | 1710 nM |
| DAN-G (pancreas, adherent, top dose 4 µM) | 0.838 | 2230 nM |
| DB (B-cell lymphoma, suspension, top dose 4 µM) | 0.887 | > 4000 nM |
| DBTRG-05MG (glioma, adherent, top dose 4 µM) | 0.913 | > 4000 nM |
| DEL (lymphoid neoplasm, suspension, top dose 4 µM) | 0.994 | > 4000 nM |
| DG-75 (Burkitt lymphoma, suspension, top dose 4 µM) | 0.746 | 1280 nM |
| DIFI (large intestine, adherent, top dose 4 µM) | 0.682 | 826 nM |
| DJM-1 (skin, adherent, top dose 4 µM) | 0.91 | > 4000 nM |
| DK-MG (glioma, adherent, top dose 4 µM) | 0.821 | > 4000 nM |
| DMS-79 (small cell lung carcinoma, suspension, top dose 4 µM) | 0.945 | > 4000 nM |
| DMS-114 (small cell lung carcinoma, adherent, top dose 4 µM) | 0.836 | 3250 nM |
| DMS-273 (small cell lung carcinoma, adherent, top dose 4 µM) | 0.811 | 2270 nM |
| DND-41 (T-cell leukaemia, suspension, top dose 4 µM) | 0.937 | > 4000 nM |
| DOHH-2 (B-cell lymphoma, suspension, top dose 4 µM) | 0.89 | > 4000 nM |
| DOK (head and neck, adherent, top dose 4 µM) | 0.457 | 180 nM |

| Cell Line | AUC | IC50 |
| --- | --- | --- |
| DOV13 (ovary, adherent, top dose 4 µM) | 0.708 | 1070 nM |
| DSH1 (bladder, adherent, top dose 4 µM) | 0.903 | > 4000 nM |
| DU-145 (prostate, adherent, top dose 2 µM) | 0.983 | > 2000 nM |
| Daudi (Burkitt lymphoma, suspension, top dose 4 µM) | 0.877 | 3150 nM |
| Detroit562 (head and neck, adherent, top dose 4 µM) | 0.931 | > 4000 nM |
| DoTc2-4510 (cervix, adherent, top dose 4 µM) | 0.89 | > 4000 nM |
| EB2 (Burkitt lymphoma, suspension, top dose 4 µM) | 0.978 | > 4000 nM |
| EB-3 (Burkitt lymphoma, suspension, top dose 4 µM) | 0.984 | > 4000 nM |
| EBC-1 (lung squamous cell carcinoma, adherent, top dose 4 µM) | 0.915 | > 4000 nM |
| EC-GI-10 (oesophagus, adherent, top dose 4 µM) | 0.661 | 699 nM |
| ECC10 (stomach, suspension, top dose 4 µM) | 0.629 | 576 nM |
| EFM-192A (breast, adherent, top dose 4 µM) | 0.667 | 772 nM |
| EFO-21 (ovary, adherent, top dose 4 µM) | 0.904 | > 4000 nM |
| EFO-27 (ovary, adherent, top dose 4 µM) | 0.913 | > 4000 nM |
| EGI-1 (biliary tract, adherent, top dose 2 µM) | 0.742 | 776 nM |
| EHEB (lymphoid neoplasm, suspension, top dose 4 µM) | 0.692 | 1110 nM |
| EKVX (lung adenocarcinoma, adherent, top dose 4 µM) | 0.644 | 994 nM |
| EM-2 (chronic myeloid leukaemia, suspension, top dose 4 µM) | 0.737 | 1320 nM |
| EMC-BAC-1 (lung adenocarcinoma, adherent, top dose 4 µM) | 0.737 | 1330 nM |
| EMC-BAC-2 (lung adenocarcinoma, adherent, top dose 4 µM) | 0.695 | 987 nM |
| EN (endometrium, adherent, top dose 4 µM) | 0.869 | > 4000 nM |
| ES1 (Ewing sarcoma, adherent, top dose 4 µM) | 0.725 | 1080 nM |
| ES3 (Ewing sarcoma, adherent, top dose 2 µM) | 0.953 | > 2000 nM |
| ES4 (Ewing sarcoma, adherent, top dose 4 µM) | 0.64 | 647 nM |
| ES5 (Ewing sarcoma, adherent, top dose 4 µM) | 0.299 | 62 nM |
| ES6 (Ewing sarcoma, adherent, top dose 4 µM) | 0.875 | > 4000 nM |

same assay, conditions: top dose 4 µM; screen: GDSC drug entry 1527; top dose inferred

| Cell Line | AUC | IC50 |
| --- | --- | --- |
| COR-L32 (small cell lung carcinoma, suspension) | 0.77 | 3710 nM |
